Source: the supplement of paper PMC3334620
In all, about 33,000 sequences were measured (“E-score (-0.5 to 0.5)”: median about -0.043, highest 2% from about 0.37 on). The list shows a part of the results.

Biological target: T1, Upc2 (UniProt Q12151)
T1 sequence: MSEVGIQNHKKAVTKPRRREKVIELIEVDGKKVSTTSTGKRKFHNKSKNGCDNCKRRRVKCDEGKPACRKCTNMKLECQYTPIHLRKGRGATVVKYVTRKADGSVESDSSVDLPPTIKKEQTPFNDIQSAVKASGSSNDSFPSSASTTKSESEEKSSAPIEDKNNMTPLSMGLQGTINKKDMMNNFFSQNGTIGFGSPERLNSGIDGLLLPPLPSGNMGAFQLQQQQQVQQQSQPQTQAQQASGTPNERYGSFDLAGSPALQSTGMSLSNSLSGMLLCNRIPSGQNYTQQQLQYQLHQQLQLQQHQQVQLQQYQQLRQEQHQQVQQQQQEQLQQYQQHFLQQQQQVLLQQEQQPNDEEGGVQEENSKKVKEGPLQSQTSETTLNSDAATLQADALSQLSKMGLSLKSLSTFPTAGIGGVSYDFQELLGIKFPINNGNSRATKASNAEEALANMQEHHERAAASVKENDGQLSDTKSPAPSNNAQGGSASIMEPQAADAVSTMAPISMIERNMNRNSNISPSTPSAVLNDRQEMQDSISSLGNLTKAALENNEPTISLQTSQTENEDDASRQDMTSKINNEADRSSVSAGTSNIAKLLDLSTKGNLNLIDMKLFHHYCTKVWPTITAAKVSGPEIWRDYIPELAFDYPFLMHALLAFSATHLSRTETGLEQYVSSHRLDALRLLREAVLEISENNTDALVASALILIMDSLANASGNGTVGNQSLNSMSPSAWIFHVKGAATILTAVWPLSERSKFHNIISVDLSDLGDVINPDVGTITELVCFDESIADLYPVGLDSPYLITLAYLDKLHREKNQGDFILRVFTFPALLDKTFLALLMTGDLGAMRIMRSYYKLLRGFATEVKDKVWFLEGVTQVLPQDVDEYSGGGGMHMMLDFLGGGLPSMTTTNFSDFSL
Assay: PBM E-score (8-mer binding enrichment) (E-score (-0.5 to 0.5)); higher = stronger / more preferred TF binding; most listed sequences are background and not binding sites
Details: protein concentration: 200 nM; construct: GST-full length
Outline: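 Detection of bound protein used fluorescent anti-GST, with scans normalised by masliner. The proteins were GST-tagged yeast transcription factors applied at about 100-200 nM to universal all-10-mer Agilent arrays made double-stranded by primer extension. Each ungapped eight-base word, pooled with its reverse complement, was scored with an E-score from the Universal PBM Analysis Suite.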

Sequence | PBM E-score
AAATAGGC | -0.0831
ATGTCAAG | -0.24
AGTATGGG | -0.192
GAAGACCC | -0.268
TAAATGGA | -0.2
CCCAAATA | -0.136
AATTATAA | 0.0533
TACCTTGA | 0.00639
ATACCGAT | 0.137
TAAGAAGA | 0.11
AAAGATGC | 0.15
ACCATACT | 0.0287
CGACTCCC | -0.0182
GCGAACCA | 0.164
CCACGCAG | 0.0616
ATGAAAGG | -0.241
GGTTAGGA | -0.0219
AACCATAT | 0.122
CGGAGCGA | 0.261
GGAGTAAA | -0.0785
ATCGCGCC | 0.0941
AACAGCTT | -0.0977
CACCTGAC | -0.247
ATAAGCTG | -0.167
ATTCGGGG | -0.0964

Sequence | PBM E-score
CGGCTCCC | -0.00596
CGCGCTTC | 0.0064
CAAGTGGC | -0.244
GCCAAGAA | -0.146
TCTCAAAA | -0.133
CGCACAAA | 0.214
ACGAACCT | 0.244
ATTCGGAA | 0.184
CTAGTATA | 0.139
AGGGTACT | -0.133
ATCCAGCG | -0.0436
ACTCAGAG | -0.264
TAGACATA | -0.187
AGACTCAT | -0.0217
AATGATGT | -0.0427
GAAGCCTC | -0.0508
TGAGTCCA | -0.139
AACTACAA | -0.0367
AGTTCCGG | -0.0204
GCCTTACC | -0.0799
GGTGCGGA | -0.143
GCACCGTA | 0.371
ACTCGGTG | -0.157
ATGTAACC | -0.00514
CAGACAAC | -0.156

Sequence | PBM E-score
ACACGGAG | -0.0181
CTCTTTCC | -0.0582
CCTACTGA | -0.206
GCCGGATA | 0.0126
GGGTTTCA | -0.196
GGTCCCGA | 0.0868
CGCGCTAC | 0.2
ATAGCCTC | -0.00112
AAACTTGG | -0.0415
TGTCAACA | 0.0529
ACTAGCCA | -0.0146
AAGACTCC | -0.217
CAGCTTTA | -0.0841
AGCGCCTA | -0.116
CGGGTGTC | -0.0137
GGGTCGGA | 0.0691
ACTGGTGG | -0.136
GAACCTCA | -0.175
GTGGACAA | -0.121
CGAGTGTC | 0.109
AAGGGTCC | -0.102
CTATTACA | -0.0626
TAAGCCCA | -0.0856
AACGTCCC | -0.165
CGATCGCC | 0.21

Sequence | PBM E-score
CCAGCTAC | -0.174
GAAGTACA | -0.0612
AAAGGAGC | -0.113
CACGCTAC | 0.096
GATCCTTA | -0.063
AGAAGGCG | -0.215
CTGGATCC | 0.00733
GGGTGGGA | 0.0703
AATACGGT | 0.254
GAACTCTC | -0.117
CCCGTGGA | -0.189
GAGGAACA | -0.092
CCCCCCAA | -0.261
CCGCCGTA | 0.351
CTGTGACC | -0.0738
GCGCCTAC | -0.0379
ACACGCAT | -0.136
CACCAAAC | 0.141
ATTACTTG | 0.0678
ATGCGCTG | -0.0752
AAAAGCTC | 0.0262
CGTGTAAA | 0.207
CCTTGGTC | -0.0996
CTATAGAG | -0.342
CGCCACGC | -0.279

Sequence | PBM E-score
AACCAGGA | -0.113
TAGCAAAA | 0.0107
GTGACCAC | -0.283
CCTAGACC | -0.00842
CTACCATA | -0.119
ACCAGTTG | -0.0404
TCCCTGAA | -0.0988
CTAGTCTA | 0.0114
AACTCTAT | -0.263
AAATTCGT | 0.277
CCCGGTAA | -0.0292
ACTACTAA | -0.0634
AATCTTTA | -0.037
AGCAAAAG | 0.00111
CCTAGAAA | -0.189
AAGTGTAT | 0.00114
CTCGATAC | 0.145
CGCCGCAA | 0.0649
CGATTGCC | 0.126
AGTGCACG | 0.186
AGGTTTTA | -0.199
CAATATGC | 0.0202
ATCGCGTC | 0.011
ACTTGACT | -0.223
CGCTCCTA | -0.0684

Sequence | PBM E-score
AACGCTGA | 0.0761
TGTAAAAA | -0.0321
CAGGATGA | -0.0985
CCTATCAA | -0.0671
CAGCGGCG | 0.0015
TACTTAAA | 0.0169
CGCAGGAA | 0.0186
AGTGCTAG | -0.172
AATCTGTC | -0.0441
GTGAACAA | 0.128
ACGATACA | 0.279
ACTACCCC | -0.325
AAACAGGG | -0.0849
ACCCCGAA | 0.0282
AAGTCCTA | 0.0708
AAAGACGC | -0.0878
ACGCTTGC | -0.0193
AACTAGCT | 0.101
ATGCGTTC | 0.204
ATCGGAGA | -0.292
GAACGGCC | 0.255
CTATACAC | 0.0512
AGAGGACG | -0.0919
CTACTTGC | -0.0629
CCTGCCAA | -0.0976

Sequence | PBM E-score
TATCTCCA | -0.164
GCAACACC | -0.0716
ACGCGCCA | 0.0919
AGTCAAGC | -0.119
CAAAGGAC | -0.28
ATTTTTAA | 0.123
CGATGGTA | 0.1
TCGCGAGA | 0.2
AGCTACGG | 0.0336
CCACCCAA | -0.11
AATAACGG | 0.203
GACGATGC | -0.0158
CTCCATCA | -0.199
GGTGGCAC | -0.236
CTCCTGTC | -0.224
ATAAGGAG | -0.088
GCCGTTAC | 0.141
CAACAAGG | -0.135
CTGTGCAC | 0.0952
AAAAATGA | 0.0107
AATGGGCA | -0.00586
CGAAACCG | 0.152
